Experiments:
COX-2 = target: T1, COX-2 (Homo sapiens, UniProt P35354); assay: In-vitro photolabeling of COX-2 with photo-NSAIDs and analysis by LC-MS/MS; type: binding; conditions: 10 μM
T1 sequence (P35354 18-604): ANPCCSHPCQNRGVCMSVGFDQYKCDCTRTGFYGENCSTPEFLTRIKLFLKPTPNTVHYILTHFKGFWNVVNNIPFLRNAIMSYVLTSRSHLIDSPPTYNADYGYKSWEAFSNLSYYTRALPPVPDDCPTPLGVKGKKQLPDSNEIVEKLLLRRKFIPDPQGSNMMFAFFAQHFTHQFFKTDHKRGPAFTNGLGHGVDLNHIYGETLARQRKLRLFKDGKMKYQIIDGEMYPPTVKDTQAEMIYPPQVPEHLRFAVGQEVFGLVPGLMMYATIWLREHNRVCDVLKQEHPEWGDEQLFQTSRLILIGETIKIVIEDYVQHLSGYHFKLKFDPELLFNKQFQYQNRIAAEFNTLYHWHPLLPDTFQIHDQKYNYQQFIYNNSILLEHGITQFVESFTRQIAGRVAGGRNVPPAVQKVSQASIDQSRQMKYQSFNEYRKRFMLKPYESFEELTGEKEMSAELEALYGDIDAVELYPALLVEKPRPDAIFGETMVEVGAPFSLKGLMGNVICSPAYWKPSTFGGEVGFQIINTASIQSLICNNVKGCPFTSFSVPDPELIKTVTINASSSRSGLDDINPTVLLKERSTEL
Method: Recombinant COX-2 (1 μg) was separately incubated with each of the photo-NSAIDs (10 μM) or the tag 7 (10 μM) for 30 minutes at 37° C., and photo-irradiated for 15 minutes at 4° C. The samples were then tagged with the cleavable biotin azide probe 10 by copper-click chemistry for 3 hours at 24° C., followed by sample digestion with trypsin for 12 hours at 37° C., and probe cleavage with 2% formic acid. The resulting peptides were analyzed by LC-MS/MS. MS data was searched in Proteome Discoverer v2.2 with SEQUEST HT or Byonic v2.1 against the recombinant COX-2.
Data analysis procedures.

[1] = target: T2, Elongation factor 1-alpha 1 (EEF1A1) (Homo sapiens, UniProt P68104); assay: SIM-PAL conjugated peptide PSM count, elongation factor 1-alpha 1; conditions: aggregate across Jurkat and K562 cells
T2 sequence (P68104 1-462): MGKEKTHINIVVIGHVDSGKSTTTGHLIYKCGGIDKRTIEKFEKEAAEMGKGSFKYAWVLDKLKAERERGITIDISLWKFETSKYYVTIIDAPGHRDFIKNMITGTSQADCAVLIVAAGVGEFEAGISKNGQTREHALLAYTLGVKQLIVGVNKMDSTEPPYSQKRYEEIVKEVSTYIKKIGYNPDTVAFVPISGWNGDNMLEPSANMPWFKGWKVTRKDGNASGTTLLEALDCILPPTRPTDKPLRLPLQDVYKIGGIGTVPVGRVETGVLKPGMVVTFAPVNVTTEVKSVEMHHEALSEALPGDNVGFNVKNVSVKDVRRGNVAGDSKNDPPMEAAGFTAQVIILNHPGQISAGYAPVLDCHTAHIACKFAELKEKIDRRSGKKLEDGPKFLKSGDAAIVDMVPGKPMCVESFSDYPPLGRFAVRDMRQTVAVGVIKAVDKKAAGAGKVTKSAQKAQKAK

Histone H4 (HIST1H4A) = Histone H4 (HIST1H4A) (Homo sapiens, UniProt P62805); assay: SIM-PAL conjugated peptide PSM count, histone H4; conditions: aggregate across Jurkat and K562 cells
histone H2A = assay: Cellular thermal shift assay probed for histone H2A in Jurkat cells; type: cell-based
Method: Cell thermal shift assay (CETSA) with photo-NSAIDs and NSAIDs. Jurkat cells in 15 mL of FBSfree RPMI at a density of 2.5×10^6 cells/mL were incubated with 50 μM of tag 7, photo-NSAIDs or NSAIDs for 2 hours in a 5% CO2 atmosphere at 37° C. The cell suspension was then collected and centrifuged for 3 minutes at 300×g and the culture medium was aspirated. The cell pellets were re-suspended and washed with PBS (2×15 mL) by centrifugation. PBS (1 mL) supplemented with EDTA-free protease inhibitors (1×) was added to each tube, and the resulting cell suspension was equally distributed into eight different 0.2 mL PCR tubes. The PCR tubes were heated over a temperature gradient (37-62° C.) for 20 minutes in a 96-well thermal cycler, followed by repeated freeze-thaw cycles (5×). The PCR tubes containing the resulting cell lysates were centrifuged at 20,000×g for 30 minutes at 4° C. to pellet cell debris together with precipitated and aggregated proteins. Each supernatant with the soluble protein fraction was transferred carefully to a new tube and analyzed by Western blot. The Western blot bands were quantified by ImageJ, and the data were fitted to obtain apparent Tagg values using the Boltzmann Sigmoid equation within GraphPad Prism.

[2] = target: Histone H2B type 1-K (HIST1H2BK) (Homo sapiens, UniProt O60814); assay: SIM-PAL conjugated peptide PSM count, histone H2B type 1-K; conditions: aggregate across Jurkat and K562 cells
[3] = target: X-ray repair cross-complementing 6 (XRCC6) (Homo sapiens, UniProt P12956); assay: SIM-PAL conjugated peptide PSM count, XRCC6; conditions: aggregate across Jurkat and K562 cells
X-ray repair cross-complementing 6 (XRCC6), sequence (P12956 2-609 limits assumed): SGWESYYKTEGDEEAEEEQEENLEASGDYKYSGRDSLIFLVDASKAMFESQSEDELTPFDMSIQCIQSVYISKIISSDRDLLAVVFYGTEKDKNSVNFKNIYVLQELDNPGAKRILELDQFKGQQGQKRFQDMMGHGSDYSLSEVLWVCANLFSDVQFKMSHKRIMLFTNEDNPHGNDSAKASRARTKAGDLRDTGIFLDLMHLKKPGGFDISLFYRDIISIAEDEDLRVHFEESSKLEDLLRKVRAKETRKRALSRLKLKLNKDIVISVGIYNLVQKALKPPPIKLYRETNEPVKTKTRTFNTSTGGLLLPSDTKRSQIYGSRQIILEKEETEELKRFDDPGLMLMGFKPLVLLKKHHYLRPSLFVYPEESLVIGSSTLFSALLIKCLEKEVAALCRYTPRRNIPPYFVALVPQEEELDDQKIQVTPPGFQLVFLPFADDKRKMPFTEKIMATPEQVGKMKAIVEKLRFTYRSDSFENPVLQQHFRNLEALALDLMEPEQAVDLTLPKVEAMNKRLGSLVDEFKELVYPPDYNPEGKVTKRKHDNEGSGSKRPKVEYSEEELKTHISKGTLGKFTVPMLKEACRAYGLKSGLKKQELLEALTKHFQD
X-ray repair cross-complementing 6 (XRCC6), sequence (P13010 2-732 partner limits assumed): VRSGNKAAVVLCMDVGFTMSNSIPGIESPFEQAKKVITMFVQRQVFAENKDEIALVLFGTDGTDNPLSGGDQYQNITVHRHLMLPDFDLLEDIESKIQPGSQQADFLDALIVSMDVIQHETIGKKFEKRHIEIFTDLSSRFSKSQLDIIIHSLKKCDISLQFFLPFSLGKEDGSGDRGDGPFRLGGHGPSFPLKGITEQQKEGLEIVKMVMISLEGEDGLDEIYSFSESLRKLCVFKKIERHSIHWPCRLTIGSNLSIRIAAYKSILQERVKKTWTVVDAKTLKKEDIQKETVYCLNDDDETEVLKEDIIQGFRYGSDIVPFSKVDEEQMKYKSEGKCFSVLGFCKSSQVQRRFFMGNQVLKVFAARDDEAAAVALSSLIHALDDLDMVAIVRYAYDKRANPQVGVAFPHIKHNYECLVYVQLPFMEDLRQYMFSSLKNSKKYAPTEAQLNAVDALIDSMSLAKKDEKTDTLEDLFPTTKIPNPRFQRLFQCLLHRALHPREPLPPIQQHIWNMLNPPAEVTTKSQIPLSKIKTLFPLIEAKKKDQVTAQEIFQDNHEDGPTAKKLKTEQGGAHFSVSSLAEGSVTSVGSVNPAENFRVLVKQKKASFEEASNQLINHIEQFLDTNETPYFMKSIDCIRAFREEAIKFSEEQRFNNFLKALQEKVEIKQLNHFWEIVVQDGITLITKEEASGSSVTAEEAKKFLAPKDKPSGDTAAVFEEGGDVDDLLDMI

[4] = target: Actin, cytoplasmic 1 (ACTB) (Homo sapiens, UniProt P60709); assay: SIM-PAL conjugated peptide PSM count, actin cytoplasmic 1; conditions: aggregate across Jurkat and K562 cells
Cathepsin D (CTSD) = Cathepsin D (CTSD) (Homo sapiens, UniProt P07339); assay: SIM-PAL conjugated peptide PSM count, cathepsin D; conditions: aggregate across Jurkat and K562 cells
Cathepsin D (CTSD), sequence (P07339 65-412): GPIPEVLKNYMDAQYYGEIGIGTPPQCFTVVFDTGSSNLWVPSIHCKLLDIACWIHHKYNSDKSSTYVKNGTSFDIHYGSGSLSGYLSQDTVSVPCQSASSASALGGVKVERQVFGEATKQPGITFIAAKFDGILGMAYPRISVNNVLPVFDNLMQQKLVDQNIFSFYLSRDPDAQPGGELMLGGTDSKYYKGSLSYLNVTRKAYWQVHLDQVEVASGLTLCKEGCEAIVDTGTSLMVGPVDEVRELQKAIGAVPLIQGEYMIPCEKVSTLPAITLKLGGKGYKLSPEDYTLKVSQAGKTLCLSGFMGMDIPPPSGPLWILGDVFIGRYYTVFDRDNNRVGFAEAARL

Nucleophosmin (NPM1) = Nucleophosmin (NPM1) (Homo sapiens, UniProt P06748); assay: SIM-PAL conjugated peptide PSM count, nucleophosmin; conditions: aggregate across Jurkat and K562 cells
Nucleophosmin (NPM1), sequence (P06748 whole entry): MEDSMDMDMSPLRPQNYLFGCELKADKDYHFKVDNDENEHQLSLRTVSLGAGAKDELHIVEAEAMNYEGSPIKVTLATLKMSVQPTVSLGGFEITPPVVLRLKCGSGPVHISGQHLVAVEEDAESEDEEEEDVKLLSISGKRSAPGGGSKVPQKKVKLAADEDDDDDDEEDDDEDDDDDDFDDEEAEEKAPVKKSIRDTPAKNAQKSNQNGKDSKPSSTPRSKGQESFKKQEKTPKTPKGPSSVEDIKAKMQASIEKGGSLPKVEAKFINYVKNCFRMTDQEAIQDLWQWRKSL

Jurkat cells = assay: MTT cell growth/viability assay in Jurkat cells; type: cell-based; conditions: activated Jurkat cells
Method: Cell growth assay (MTT) with photo-NSAIDs and NSAIDs. Jurkat cells were seeded in a 96-well flatbottomed cell culture plate (Falcon) in RPMI with 10% FBS and 1% penicillin/streptomycin at a density of 1×10^5 cells/mL and maintained for 24 hours at 37° C. and 5% CO2 atmosphere. Cells were treated with photo-NSAIDs or NSAIDs in triplicate at different doses and incubated for 24 hours at 37° C. MTT solution (10 μL, 5 mg/mL) was added to each well and gently mixed. The cells were incubated for 4 hours at 37° C., followed by addition of 0.1 mL isopropanol with 0.04 N HCl to each well. The resulting mixture was mixed thoroughly by repeated pipetting. The absorbance was measured within 1 hour on a multi-mode microplate reader with a wavelength of 620 nm.

K562 cells = assay: Anti-proliferative activity against K562 cells; type: cell-based; conditions: Homo sapiens

Row | Compound | PSMs of conjugated peptides on recombinant COX-2 (COX-2) | number of conjugated peptides observed on recombinant COX-2 (COX-2) | Count of PSMs, VETGVLKPGMVVTFAPVNVTTEVK [1] | Count of PSMs, ISGLIYEETR (Histone H4 (HIST1H4A)) | stabilization of histone H2A (in words) (histone H2A) | Count of PSMs, AMGIMNSFVNDIFER [2] | Count of PSMs, NLEALALDLMEPEQAVDLTLPK [3] | Count of PSMs, VAPEEHPVLLTEAPLNPK [4] | Count of PSMs, AIGAVPLIQGEYMIPCEK (Cathepsin D (CTSD)) | Count of PSMs, MSVQPTVSLGGFEITPPVVLR (Nucleophosmin (NPM1)) | Count of PSMs, […] [4] | anti-proliferative activity (in words) (Jurkat cells) | stabilization of histone H2A relative to the tag 7 (histone H2A) | EC50 (K562 cells)
1 | C#CCCC1(CCOc2cc(C(F)(F)F)nn2-c2ccc(S(N)(=O)=O)cc2)N=N1 [photo-celecoxib (5), 4-(5-(2-(3-(but-3-yn-1-yl)-3H-diazirin-3-yl)ethoxy)-3-(trifluoromethyl)-1H-pyrazol-1-yl)benzenesulfonamide] | 14 | seven | 7 | 10 | stabilized histone H2A | 12 | 3 | 14 | 2 | 7 | – | – | – | –
2 | C#CCCC1(CCNC(=O)Cc2c(C)n(C(=O)c3ccc(Cl)cc3)c3ccc(OC)cc23)N=N1 [photo-indomethacin (6)] | – | – | – | 1 | did not | 1 | – | – | 3 | 1 | 3 | – | – | –
3 | C#CCCC1(CCOc2cc(C(F)(F)F)nn2-c2ccccc2)N=N1 [celecoxib analog 9, 5-(2-(3-(but-3-yn-1-yl)-3H-diazirin-3-yl)ethoxy)-1-phenyl-3-(trifluoromethyl)-1H-pyrazole] | – | – | – | – | – | – | – | – | – | – | – | attenuated anti-proliferative activity | 10-15 °C | –
4 | C#CCCC1(CCOc2ccc3cc([C@H](C)C(=O)O)ccc3c2)N=N1 [photo-naproxen (4), (S)-2-(6-(2-(3-(but-3-yn-1-yl)-3H-diazirin-3-yl)ethoxy)naphthalen-2-yl)propanoic acid] | 19 | six | 5 | 2 | stabilized histone H2A | 41 | 7 | 3 | 4 | 7 | – | – | – | –
5 | CO[C@@]12[C@H](COC(N)=O)C3=C(C(=O)C(C)=C(N)C3=O)N1C[C@@H]1N[C@@H]12 [Mitomycin] | – | – | – | – | – | – | – | – | – | – | – | – | – | 34.9 µM
6 | C#CCCC1(CCOC(=O)NC2CCC(=O)NC2=O)N=N1 (stereo not drawn) [photo-glutarimide 8, 2-(3-(but-3-yn-1-yl)-3H-diazirin-3-yl)ethyl (2,6-dioxopiperidin-3-yl)carbamate] | – | – | – | – | – | – | 2 | – | – | – | – | – | – | –
